Results are given in words; binding and its absence hold for the method and conditions named. For part of these data: In cells and extracts the contact can be indirect. Some binding calls cover weakened binding; strength is not graded here. Sequences can lack the tags named with a protein. One block for each binder: values may come before it.
Key:
[1] = biological target: Arabidopsis FLOWERING LOCUS T (AtFT), pBD-GAL4 Cam bait fusion (Arabidopsis), Q9SXZ2; experiment: two-hybrid; yeast; X-gal filter assays; PEBP proteins as baits in pBD-GAL4 Cam, bZIP proteins as preys in pAD-GAL4; constructs of RFT1, GF14c, OsbZIP23 and OsbZIP72 (Supplementary Fig. S10) not described; conditions: remark: other sources report otherwise
[2] = biological target: MBP:Hd3a (rice) (UniProt Q93WI9); experiment: pull-down; MBP-tagged proteins immobilized onto Amylose Resin, incubated with crude extract containing His-tagged proteins in 20 mM Tris pH 8.0, 1 mM EDTA, 100 mM NaCl, 0.1% NP40, 1 mM PMSF for 3 hours at 4 °C; 6 washes; western blot; only the target purified
[3] = biological target: T1, GF14c (rice) (UniProt Q6ZKC0); experiment: two-hybrid; yeast; X-gal filter assays; PEBP proteins as baits in pBD-GAL4 Cam, bZIP proteins as preys in pAD-GAL4; constructs of RFT1, GF14c, OsbZIP23 and OsbZIP72 (Supplementary Fig. S10) not described
T1 sequence: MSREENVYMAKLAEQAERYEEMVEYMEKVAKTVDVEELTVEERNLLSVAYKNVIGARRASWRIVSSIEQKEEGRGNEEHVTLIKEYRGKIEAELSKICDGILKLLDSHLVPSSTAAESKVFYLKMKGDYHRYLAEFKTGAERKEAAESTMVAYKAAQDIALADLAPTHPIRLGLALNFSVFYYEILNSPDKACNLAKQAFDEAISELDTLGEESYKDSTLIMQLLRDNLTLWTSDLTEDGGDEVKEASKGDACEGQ

Protein sequences, listed by entry. Tags and fused reporters are not part of them.
UniProt Q9SXZ2: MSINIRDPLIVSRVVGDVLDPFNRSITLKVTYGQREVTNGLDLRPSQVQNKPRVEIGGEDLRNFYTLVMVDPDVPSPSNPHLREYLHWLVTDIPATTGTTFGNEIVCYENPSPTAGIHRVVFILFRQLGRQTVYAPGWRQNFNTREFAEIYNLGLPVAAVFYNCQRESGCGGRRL
UniProt Q93WI9: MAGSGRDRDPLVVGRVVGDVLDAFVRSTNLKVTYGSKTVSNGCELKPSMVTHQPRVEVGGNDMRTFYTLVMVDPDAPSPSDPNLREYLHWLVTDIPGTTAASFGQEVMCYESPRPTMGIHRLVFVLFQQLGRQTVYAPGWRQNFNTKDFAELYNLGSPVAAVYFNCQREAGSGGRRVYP
UniProt Q8VWH2: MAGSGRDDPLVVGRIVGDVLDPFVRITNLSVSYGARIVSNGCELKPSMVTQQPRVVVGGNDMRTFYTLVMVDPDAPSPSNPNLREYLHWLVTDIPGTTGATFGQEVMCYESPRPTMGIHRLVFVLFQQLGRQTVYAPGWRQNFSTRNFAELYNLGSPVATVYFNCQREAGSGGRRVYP

[4] = biological target: RICE FLOWERING LOCUS T 1 (RFT1), yeast two-hybrid construct (rice) (UniProt Q8VWH2); experiment: as above
[5] = biological target: MBP:AtFT (Arabidopsis), Q9SXZ2; experiment: pull-down; MBP-tagged proteins immobilized onto Amylose Resin, incubated with crude extract containing His-tagged proteins in 20 mM Tris pH 8.0, 1 mM EDTA, 100 mM NaCl, 0.1% NP40, 1 mM PMSF for 3 hours at 4 °C; 6 washes; western blot; only the target purified; conditions: remark: other sources report otherwise
[6] = biological target: RFT1:cYFP (rice) (UniProt Q8VWH2); experiment: split reporter; BiFC in transfected rice protoplasts; Hd3a:cYFP or RFT1:cYFP with nYFP:AtFD or nYFP:AtFDP; confocal microscopy, YFP in the nucleus
[7] = biological target: Arabidopsis FLOWERING LOCUS T (AtFT), pBD-GAL4 Cam bait fusion (Arabidopsis) (UniProt Q9SXZ2); experiment: two-hybrid; yeast; X-gal filter assays; PEBP proteins as baits in pBD-GAL4 Cam, bZIP proteins as preys in pAD-GAL4; constructs of RFT1, GF14c, OsbZIP23 and OsbZIP72 (Supplementary Fig. S10) not described
[8] = biological target: MBP:AtFT (Arabidopsis) (UniProt Q9SXZ2); experiment: pull-down; MBP-tagged proteins immobilized onto Amylose Resin, incubated with crude extract containing His-tagged proteins in 20 mM Tris pH 8.0, 1 mM EDTA, 100 mM NaCl, 0.1% NP40, 1 mM PMSF for 3 hours at 4 °C; 6 washes; western blot; only the target purified

B1: Arabidopsis FD (AtFD), pAD-GAL4 prey fusion, Q84JK2 1-285 (protein)
chain: MLSSAKHQRNHRLSATNKNQTLTKVSSISSSSPSSSSSSSSTSSSSPLPSQDSQAQKRSLVTMEEVWNDINLASIHHLNRHSPHPQHNHEPRFRGQNHHNQNPNSIFQDFLKGSLNQEPAPTSQTTGSAPNGDSTTVTVLYSSPFPPPATVLSLNSGAGFEFLDNQDPLVTSNSNLHTHHHLSNAHAFNTSFEALVPSSSFGKKRGQDSNEGSGNRRHKRMIKNRESAARSRARKQAYTNELELEVAHLQAENARLKRQQDQLKMAAAIQQPKKNTLQRSSTAPF
binding [1]: binds

B2: His-tagged AtFD (protein, UniProt Q84JK2 1-285)
chain: B1 chain
binding [2]: no binding

B3: Arabidopsis FD (AtFD), pAD-GAL4 prey fusion (protein, UniProt Q84JK2 1-285)
chain: B1 chain
binding [3]: binds
binding [4]: binds

B4: His-tagged AtFD, Q84JK2 1-285 (protein)
chain: B1 chain
binding [5]: binds

B6: Arabidopsis FD PARALOGUE (AtFDP), pAD-GAL4 prey fusion (protein, UniProt Q7PCC6 1-234)
chain: MLSSAKHNKINNHSAFSISSSSSSLSTSSSLGHNKSQVTMEEVWKEINLGSLHYHRQLNIGHEPMLKNQNPNNSIFQDFLNMPLNQPPPPPPPPSSSTIVTALYGSLPLPPPATVLSLNSGVGFEFLDTTENLLASNPRSFEESAKFGCLGKKRGQDSDDTRGDRRYKRMIKNRESAARSRARKQAYTNELELEIAHLQTENARLKIQQEQLKIAEATQNQVKKTLQRSSTAPF
binding [3]: binds
binding [7]: binds
binding [4]: binds

Next, values leading:

binding [6]: binds
B5: nYFP:AtFD (protein, UniProt Q84JK2 1-285)
chain: B1 chain

binding [6]: binds
B7: nYFP:AtFDP (protein, UniProt Q7PCC6 1-234)
chain: B6 chain

binding [2]: no binding
binding [8]: binds
B8: His-tagged AtFDP (protein, UniProt Q7PCC6 1-234)
chain: B6 chain
